# The campaign covered roughly 150,000 compounds. About 540 (0.36%) showed an effect of 50% or more. This is one part of the list.
# System: Plasmodium falciparum
# Assay: Primary screen in NF54 nanoGlo assay, in single point, at 2uM, 72h; a lower Z score goes with more inhibition
# Type: functional, Erythrocyte
# Details: timepoint 72 hour
SMILES,% Inhibition,Z score
Cn1c(=O)c(N2CCN(C(=O)c3cc(F)ccc3F)CC2)nc2cccnc21,-3%,0.33
Cc1ncccc1NC(=O)C(C)(C)C(F)F,-9%,1.2
Cc1nn(-c2ncc(F)cc2F)c(C)c1[C@@H]1CCC(=O)N1,-2%,0.25
O=C(c1nc2ccccc2s1)N1CCN(c2cnsn2)CC1,-11%,1.36
CC(C)(C)OC(=O)NC1CCC2CN(Cc3cnc4ccccc4c3)CC21 (stereo not drawn),-3%,0.47
COc1ccc(-c2nc(N3CCC(Cc4ccccc4)CC3)nc3nn(C)c(N)c23)cc1OC,5%,-0.6
Cc1c(COc2ccc(N)cc2)cnn1C,-22%,4.17
CC(=O)N1C[C@@H]2CCN(Cc3ccc(Br)o3)C[C@]2(CO)C1,7%,-0.98
CCN(CC)S(=O)(=O)c1ccc(NC(=O)CN2CCC(=O)Nc3cc(F)ccc32)cc1,8%,-1.1
CCN(Cc1cccs1)S(=O)(=O)C1(C)CC1,-4%,0.79
FC1(F)CC12CCC(NCCn1cc(Br)cn1)CC2 (stereo not drawn),1%,-0.15
COC(=O)[C@@H]1CS(=O)(=O)[C@H](C)N1C(=O)C(F)(F)F,-36%,4.18
COc1cc(C[C@@]2(CCC(=O)N3CCC(Oc4cccc(F)c4)CC3)CCC(=O)N2)ccc1F,9%,-1.18
COc1cc(Cc2nccc3cc(OC)c(OC)cc23)c(-n2c(C)ccc2C)cc1OC,6%,-0.9
CCC1CC(C(=O)N2CCCCC2c2cnn(C)c2)CC(=O)N1 (stereo not drawn),-1%,0.08
Cc1ccc(Cc2c(C)nn(-c3nc(CC(=O)Nc4ccc(C)c(Cl)c4)cs3)c2C)cc1,-2%,0.42
C[C@H]1Cc2cc(NC(=O)c3cc(C#N)cn3C)ccc2O1,-12%,1.59
Cc1nnsc1C(=O)Nc1cc(C2CCC2)nn1-c1ccccc1,-8%,0.94
c1cnnc(-c2noc(CCc3ccc4c(c3)OCO4)n2)c1,4%,-0.47
CCC(=O)NCc1nc2c(n1C)CN(C(=O)c1ccc(F)cc1F)CC2,-8%,0.86
NC(=O)N1CCC(N[C@H](c2cccc(Cl)c2)C2CCCCC2)CC1,3%,-0.36

SMILES,% Inhibition,Z score
CCOc1ccc(NC(=O)c2cc(C)nc3c2c(C)nn3-c2ccc(CC)cc2)cc1,1%,-0.1
Cc1ccccc1CCc1cc(NC(=O)c2n[nH]nc2C)[nH]n1,-6%,0.72
C1=CCC(COc2ccc3nccn3n2)C1,1%,-0.2
CCC1CCC(NC(=O)N2CCC3(CC2)NC(=O)[C@H](CC)O3)CC1 (stereo partly drawn),-18%,2.76
CCc1cc(C(=O)N2CCN(C)CC2)on1,-10%,1.46
C[C@H](NS(=O)(=O)c1ccccc1C(F)(F)F)C(=O)Nc1ccc2[nH]c(=O)[nH]c2c1,-3%,0.37
Cc1cc(-c2cc(S(=O)(=O)NCc3ccccc3)c(C)s2)on1,6%,-0.58
CCOC(=O)c1nc(NCc2ccccc2OCC)c2c(-c3ccc(F)cc3)noc2n1,-19%,2.95
CN(Cc1ccc(Cl)cc1)c1nc2ccccc2nc1NS(=O)(=O)c1ccc2c(c1)OCCO2,-2%,0.33
Cn1nc(C2CC2)cc1NC(=O)N[C@@H]1COC2(CCCCC2)C1,-8%,1.44
O=C(c1cc(C2CC2)on1)N1CC[C@H](Oc2ccncc2Cl)C1,4%,-0.7
CCC1(CNC(=O)N2CC3CCC2CN3)OCCc2ccccc21 (stereo not drawn),5%,-1.02
CCOC(=O)c1cc(C2CC2)nc2cc(-c3ccccc3)nn12,-7%,0.93
Cc1nn(C(F)F)cc1S(=O)(=O)N1CCC(Cc2ccccc2)CC1,-4%,0.44
Nc1nc(C2CCCC2)ncc1C(=O)NC1C2CCOC2C12CCCC2 (stereo not drawn),-1%,0.2
CN1C[C@@H](NC(=O)c2cscn2)CCC1=O,-9%,0.91
C[C@H]1CCCN(c2ccc(C(=O)O)nn2)CC1,6%,-1.17
Cn1cccc1C(=O)NC[C@@]12CCC=C1N(CC1CC1)C(=O)CC2,-12%,1.72
CN(CC1CCC1)C(=O)NCCc1nccs1,-3%,0.47
CCCN1CCN(C(=O)C(C)(C)OCC)CC1=O,13%,-2.18
COc1ccc2ncc3c(-c4ccccc4)n[nH]c3c2c1,-11%,1.31

SMILES,% Inhibition,Z score
Cc1nccnc1CCNC(=O)[C@]1(C)CC[C@H](C)C1(C)C,-5%,0.59
O=S(=O)(c1cccc2nsnc12)N1CC(Cn2ccnn2)C1,-8%,1.56
O=C(CCc1cccnc1)Nc1ccc2c(c1)OCCO2,-13%,2.1
CC(=O)NCC1CCN(Cc2ccccc2-c2nc(C(C)(C)C)cc(=O)[nH]2)CC1,-15%,1.31
CCOc1nc2c(c(C)nn2-c2cccc(F)c2)c(C)c1CCC(=O)NCc1ccc(F)cc1,0%,-0.01
Cc1ncn(CC2CCN(C(=O)c3ccc4nccnc4c3)CC2)c(=O)c1C,-8%,1.22
O=C1CCc2cc(S(=O)(=O)N3CCC(=O)Nc4cc(F)ccc43)ccc2N1,-6%,0.84
CC(C)CC(=O)Nc1ccc(N(C)C)c(CN(Cc2ccco2)C(=O)NC(C)(C)C)c1,1%,-0.12
O=C(NCCc1ccccc1)N1CCC2(CC1)C[C@@H](CCOCc1ccccc1)CCO2,-1%,0.14
CCc1nc(COc2ccc(C(=O)NC[C@H]3CCO[C@@H]3C(C)(C)C)cc2)no1,-18%,2.49
CCOC(=O)c1cnn(-c2ncnc(CC)c2F)c1C(F)F,3%,-0.35
CC[C@@H](CS(=O)(=O)NC1CCC1)OC,4%,-0.51
CC(C)(C)c1coc(CNC(=O)N[C@H]2CCO[C@@H]2c2ccccc2)n1,-6%,0.72
CCCCn1nnnc1CN1CC[C@@]2(CCCN(C)C2)C1,-6%,0.66
C[C@@H]1CC[C@H](C(=O)OC(C)(C)C)[C@H](C)N1C(=O)C1COCCO1 (stereo partly drawn),26%,-3.31
Cc1c(C(=O)N2CC(C)(O)C2)sc2ncc(C(=O)N3CC(C)(O)C3)cc12,-6%,1.05
FC(F)CN1CCN(Cc2ccccc2N2CCOCC2)CC1,-14%,1.72
CN1CC[C@@]2(CCC1=O)CN(Cc1ccco1)CCN2C,6%,-0.97
O=C1CCCN1c1ccc(S(=O)(=O)N2CCCC2)cc1,-1%,0.12
CC(C)(C)OC(=O)N1CCN(C2CCC(NC(=O)CC3CCC3)CC2)CC1 (stereo not drawn),10%,-1.56
CCOC(=O)c1cnn(-c2ccnc3cc(Cl)ccc23)c1CN1CCC[C@H]1CO,-10%,1.25

SMILES,% Inhibition,Z score
O=C(c1cccc(Cl)c1)N1CCC2(CCCC2)C1,-8%,0.99
Cc1cc2c(cc1C)N(CC(=O)N1CCN(c3ccc(F)cc3)CC1)C(=O)[C@H]1CCCC1=N2,-9%,1.4
CCCCN(CC(N)=O)S(=O)(=O)c1ccc(C)c(F)c1,-16%,1.6
Cc1n[nH]c(C)c1S(=O)(=O)N1CCN(C(=O)CCn2c(C)ccc2C)CC1,-12%,1.55
Cc1ccc(Cc2nc(N3CCN(C(=O)c4cccc(F)c4)CC3)c3c(C)nn(-c4ccccc4)c3n2)cc1,-2%,0.32
Cc1cc(=O)c(C(=O)NC2CCN(CC(=O)NC3CC3)CC2)cn1C,-8%,1.66
COc1ccc([C@@H]2Cn3cc(C(=O)NCc4cccnc4)nc3C(=O)N2)cc1,-18%,2.5
CC(C)n1ccnc1CN1CCCCCCCC1=O,-5%,0.59
CN(Cc1ccsc1)C(=O)CCc1ccsc1,-6%,0.51
COc1ccc(CN(C)C(=O)CCC(=O)Nc2nncs2)cc1O,4%,-0.69
CCc1nc(-c2ccccc2)nc(N2CCN(C(=O)c3ccc(F)cc3)CC2)c1Cc1cccc(OC)c1,-10%,1.66
Cc1cccc(C)c1CC(=O)Nc1cccn(CC(=O)N(C)C)c1=O,-5%,0.82
O=C(Nc1ccc(F)cn1)NC1C2C3CCC(C3)C12 (stereo not drawn),1%,-0.12
Cc1ccc(N2C[C@@H](c3noc(-c4ccncc4)n3)CC2=O)cc1,-1%,0.19
CCOc1cccc(CNC(=O)[C@H]2CC(=O)N(CCN3CCOCC3)C2)c1,-4%,0.84
Cn1cc(C(=O)N2CCC[C@H]2c2ccc3c(c2)OCCO3)c2ccccc21,4%,-0.82
COc1ccc(C(=O)N2CCN(S(=O)(=O)c3ccc(F)cc3)C[C@@H]2C(=O)N[C@H]2CCCNC2=O)cc1,-8%,1.31
CCC1(CC)CCN(C(=O)CN2CCCCCC2)C1,-8%,1.46
Cc1cc(-c2ccccc2Cl)n(C2CCNCC2)n1,6%,-1.16
c1ccc(-n2cc(-c3ccc(CN4CCOCC4)cc3)cn2)nc1,-11%,1.27
CC(=O)N(C[C@H]1CCCN1S(=O)(=O)Cc1ccccc1F)C1CC1,0%,0.02

# Source: ChEMBL document CHEMBL4888484, “Replenishing the malaria drug discovery pipeline: Screening and hit evaluation of the MMV Hit Generation Library 1 (HGL1) against asexual blood stage Plasmodium falciparum ,using a nano luciferase reporter read-out” (2022)
